The text below walks through data of the supplement of paper PMC9446081.

The campaign covered roughly 39,000 compounds. About 220 (0.56%) showed activity. The list shows a part of the results.
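Also: static incubation at 37 °C against the wild-type strain, values averaged over two biological replicates.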

In the test the test system is Escherichia coli K-12 BW25113. Put plainly: relative growth (OD600 normalised to plate interquartile mean) (fraction); higher = less growth inhibition, active = 0.2 or less. Particulars: 50 µM; LB; incubation time: overnight (16-24 h).
In the case of `CC(C)CC#Cc1ccc2c(c1)O[C@@H](CN(C)C(=O)Cc1ccncc1)[C@@H](C)CN([C@H](C)CO)S2(=O)=O`, the relative growth was inactive: 1.03.

In the case of `Cc1c(C)c2c(c(C)c1OC(=O)CCC(=O)O)CC[C@@](C)(CCC[C@H](C)CCC[C@H](C)CCCC(C)C)O2`, the relative growth is inactive: 1.04.

For `COc1ccc2c3c([nH]c2c1)[C@@H](CO)N(C[C@]13CN(C1)S(=O)(=O)C)C(=O)c1cnccn1`, the relative growth is inactive: 1.

Consider `O=C(O)c1ccno1`, for which the relative growth was inactive: 0.986.

In the case of `Cn1c(=O)c2c(nc(NCCN)n2Cc2ccc(Cl)cc2)n(C)c1=O`, the relative growth is inactive: 1.01.

Take `C[C@@H]1CN([C@@H](C)CO)C(=O)Cc2cc(NC(=O)Nc3cccc4ccccc34)ccc2O[C@@H]1CN(C)Cc1ccccc1`: the relative growth was inactive: 1.02.

As to `C[C@@H]1CN([C@H](C)CO)C(=O)c2cccc(NS(=O)(=O)c3ccccc3)c2O[C@H]1CN(C)S(=O)(=O)c1ccc(F)cc1`, the relative growth was inactive: 0.978.

As for `CC(C)NC(=O)Nc1ccc2c(c1)CC(=O)N([C@H](C)CO)C[C@@H](C)[C@H](CN(C)Cc1ccc(C(=O)O)cc1)O2`, the relative growth was inactive: 0.998.

`CCCNC(=O)N1C[C@]2(CCN(CC2)S(=O)(=O)c2ccc(cc2)OC)c2c(n(c3cc(ccc23)OC)C)[C@H]1CO`: the relative growth was inactive: 1.02.

On to `C[C@H]1CC/C=C\[C@H]2O[C@@]34C=CCN(CCN5CCOCC5)C(=O)[C@H]3N(CCO)C(=O)[C@@H]4[C@@H]2C(=O)O1`, for which the relative growth is inactive: 0.966.

For the compound `CC(C)NC(=O)N(C)C[C@H]1Oc2cc(-c3ccccc3F)ccc2S(=O)(=O)N([C@H](C)CO)C[C@@H]1C`, the relative growth is inactive: 0.998.

On to `COc1c(C)cc(-c2cc3c(c(-c4ccccc4)n2)[Si](C(C)C)(C(C)C)O[C@H]3c2ccccc2)cc1C`, for which the relative growth is inactive: 1.01.

Regarding `COCC#Cc1cnc2c(c1)C(=O)N([C@H](C)CO)C[C@@H](C)[C@@H](CN(C)C(=O)Nc1ccc(OC)cc1)O2`, the relative growth was inactive: 0.977.

Consider `O=C(C[C@@H]1C=C[C@@H](NC(=O)Nc2cc(F)ccc2F)[C@H](CO)O1)NCCCN1CCOCC1`, for which the relative growth is inactive: 1.02.

Regarding `C[C@@H]1CN([C@@H](C)CO)C(=O)c2cc(NC(=O)Cc3cn(C)c4ccccc34)ccc2O[C@H]1CN(C)C(=O)Nc1ccc(C(F)(F)F)cc1`, the relative growth was inactive: 0.994.

`COc1cccc(NC(=O)N[C@H]2CC[C@H](CC(=O)N3CCOCC3)O[C@@H]2CO)c1`: the relative growth was inactive: 1.01.

For `Cc1ccc(-c2ccc3c(c2)O[C@@H](CN(C)C(=O)Nc2ccc(C(F)(F)F)cc2)[C@@H](C)CN([C@@H](C)CO)S3(=O)=O)cc1`, the relative growth is inactive: 0.852.

On to `COc1ccccc1C#Cc1cnc2c(c1)C(=O)N([C@H](C)CO)C[C@H](C)[C@H](CN(C)S(=O)(=O)c1cn(C)cn1)O2`, for which the relative growth is inactive: 0.997.

For `O=C(C[C@H]1CC[C@@H]2[C@H](COC[C@H](O)CN2S(=O)(=O)c2cccc(Cl)c2)O1)NCc1ccc2c(c1)OCO2`, the relative growth was inactive: 1.01.

With `C[C@H](CO)N1C[C@H](C)[C@H](CN(C)C(=O)Nc2cccc3ccccc23)OCCCC[C@H](C)Oc2ccc(NC(=O)NC3CCCCC3)cc2C1=O`, the relative growth was inactive: 1.02.

Take `CN(C)CCOc1ccc(C(=C(CCCl)c2ccccc2)c2ccccc2)cc1.O=C(O)CC(O)(CC(=O)O)C(=O)O`: the relative growth is inactive: 0.722.

For `C[C@@H]1CN([C@H](C)CO)S(=O)(=O)c2ccc(C#C[C@@H](C)O)cc2O[C@@H]1CN(C)C(=O)c1ccccc1`, the relative growth is inactive: 1.01.

As to `Cc1ccc(S(=O)(=O)Nc2ccc3c(c2)C(=O)N([C@H](C)CO)C[C@H](C)[C@@H](CN(C)C(=O)c2ccccc2)OCCCC[C@H](C)O3)cc1`, the relative growth is inactive: 0.984.

As for `C[C@@H]1CN([C@H](C)CO)C(=O)c2cc(NC(=O)C3CC3)ccc2O[C@@H]1CN(C)Cc1ccc(Oc2ccccc2)cc1`, the relative growth was inactive: 0.998.

As to `CC(=O)OCC(=O)C1(O)CCC2C3CCC4=CC(=O)CCC4(C)C3C(O)CC21C` (stereo unspecified), the relative growth was inactive: 1.01.

For the compound `C[C@@H]1CCCCO[C@@H](CN(C)CC2CC2)[C@H](C)CN([C@H](C)CO)C(=O)c2cc(NC(=O)c3ccccc3)ccc2O1`, the relative growth was inactive: 1.

Take `C[C@@H]1CN([C@H](C)CO)C(=O)Cc2cc(NC(=O)Cn3cnnn3)ccc2O[C@H]1CN(C)Cc1ccc(C(F)(F)F)cc1`: the relative growth is inactive: 0.891.

Consider `Cc1cc(C(=O)Nc2cccc3c2O[C@H](CN(C)S(=O)(=O)c2ccc(Cl)cc2)[C@H](C)CN([C@@H](C)CO)C3=O)n(C)n1`, for which the relative growth is inactive: 0.996.

In the case of `C[C@H]1CCCCO[C@H](CN(C)C(=O)Nc2ccccc2)[C@@H](C)CN([C@@H](C)CO)C(=O)c2cc(NC(=O)Nc3cccc4ccccc34)ccc2O1`, the relative growth is inactive: 1.03.

On to `O=C(C[C@@H]1CC[C@@H]2[C@H](COC[C@H](O)CN2S(=O)(=O)c2ccc(F)cc2)O1)NCc1ccncn1`, for which the relative growth was inactive: 0.961.

`C[C@@H]1CCCCO[C@H](CN(C)C(=O)C2CCCCC2)[C@H](C)CN([C@H](C)CO)C(=O)c2cc(NS(=O)(=O)c3ccc(F)cc3)ccc2O1`: the relative growth was inactive: 1.03.

Turning to `COc1ccccc1Nc1nc(-c2ccc(Cl)cc2)cs1`, the relative growth was inactive: 1.03.

Consider `C[C@@H]1CN([C@H](C)CO)C(=O)c2cc(NC(=O)Nc3ccc(C(F)(F)F)cc3)ccc2O[C@@H](C)CCCCO[C@H]1CN(C)Cc1ccc(C(=O)O)cc1`, for which the relative growth is inactive: 0.89.

Consider `CNC(=O)C[C@H]1Nc2ccccc2NC1=O`, for which the relative growth is inactive: 1.02.

With `COCC(=O)N1C[C@]2(CN(C2)C(=O)CN2CCOCC2)c2c([nH]c3cc(ccc23)OC)[C@H]1CO`, the relative growth is inactive: 0.977.

Consider `C/C=C/c1cccc(-c2nc(C(=O)NCc3ccccc3)cc3c2[C@@H](CCO)N([S@](=O)C(C)(C)C)C3)c1`, for which the relative growth is inactive: 0.989.

As to `Cc1cc(O)n(C[C@@H](C)O)c(=O)c1C#N`, the relative growth is inactive: 1.02.

With `CC(C)(C)OC(=O)N1CC(O)C1`, the relative growth is inactive: 1.01.

Turning to `C[C@@H]1CN([C@H](C)CO)C(=O)Cc2cc(NC(=O)Nc3ccc(C(F)(F)F)cc3)ccc2O[C@@H]1CN(C)C(=O)Nc1ccccc1`, the relative growth was inactive: 1.01.

Regarding `CC(C)NC(=O)Nc1ccc2c(c1)C(=O)N([C@@H](C)CO)C[C@@H](C)[C@@H](CN(C)C(=O)Nc1ccc(C(F)(F)F)cc1)OCCCC[C@@H](C)O2`, the relative growth is inactive: 1.02.

Regarding `C[C@H](CO)N1C[C@H](C)[C@@H](CN(C)S(=O)(=O)c2cn(C)cn2)Oc2ccc(NS(C)(=O)=O)cc2CC1=O`, the relative growth is inactive: 1.04.

Consider `C[C@@H]1CN(C)C(=O)c2cccc(NC(=O)c3ccncc3)c2O[C@H]1CN(C)Cc1ccc(Oc2ccccc2)cc1`, for which the relative growth was inactive: 0.998.

In the case of `COc1ccc(CN(C)C[C@H]2OCCCC[C@H](C)Oc3ccc(NS(=O)(=O)c4ccc(C)cc4)cc3C(=O)N([C@@H](C)CO)C[C@@H]2C)cc1`, the relative growth was inactive: 0.982.

On to `COc1ccc(NC(=O)N(C)C[C@H]2Oc3ccc(NC(=O)Cn4cnnn4)cc3CC(=O)N([C@@H](C)CO)C[C@H]2C)cc1`, for which the relative growth is inactive: 0.994.

`C[C@H](CO)N1C[C@H](C)[C@@H](CN(C)C(=O)Nc2cccc3ccccc23)OCCCC[C@H](C)Oc2ccc(NC(=O)Nc3ccc(F)cc3)cc2C1=O`: the relative growth was inactive: 1.04.

Take `C[C@H](CO)N1C[C@H](C)[C@H](CN(C)S(=O)(=O)c2ccc(Cl)cc2)Oc2ccc(NC(=O)Cn3cnnn3)cc2C1=O`: the relative growth is inactive: 1.01.

For `O=C(O)c1cncnc1N1CCCC1`, the relative growth was inactive: 1.03.

Take `Cc1noc(C)c1S(=O)(=O)N(C)C[C@H]1Oc2ccc(NS(=O)(=O)c3ccc(Cl)cc3)cc2C(=O)N([C@H](C)CO)C[C@H]1C`: the relative growth was inactive: 1.04.

As for `C[C@@H]1CCCCO[C@@H](CN(C)C(=O)CCC(F)(F)F)[C@@H](C)CN([C@H](C)CO)C(=O)c2cc(NS(=O)(=O)c3cccs3)ccc2O1`, the relative growth was inactive: 0.968.

In the case of `C[C@H]1CCCCO[C@H](CN(C)C(=O)Nc2ccccc2)[C@@H](C)CN([C@@H](C)CO)C(=O)c2cc(NC(=O)Cc3ccccc3)ccc2O1`, the relative growth is inactive: 1.01.

For the compound `C[C@@H]1CCCCO[C@H](CN(C)C(=O)Nc2ccc(F)cc2)[C@@H](C)CN([C@@H](C)CO)C(=O)c2cc(NC(=O)CCCN(C)C)ccc2O1`, the relative growth is inactive: 1.01.

Take `CC(C)(C)S(=O)N1Cc2cc(C(=O)N[C@@H]3CCN(Cc4ccccc4)C3)nc(-c3cccc(C#CCC4CCCC4)c3)c2[C@@H]1CCO` (stereo partly specified): the relative growth is inactive: 1.06.

For the compound `O=C(Nc1ccccc1)c1ccccc1`, the relative growth was inactive: 0.985.

For the compound `C[C@@H]1CN([C@H](C)CO)S(=O)(=O)c2ccc(Br)cc2O[C@H]1CN(C)Cc1cccc(C(=O)O)c1`, the relative growth is inactive: 0.987.

Consider `C[C@H]1CN([C@@H](C)CO)C(=O)c2cccc(NS(=O)(=O)c3ccccc3)c2O[C@H]1CN(C)Cc1ccc(Cl)c(Cl)c1`, for which the relative growth is inactive: 1.06.

In the case of `Nc1nc(F)nc2c1ncn2[C@@H]1O[C@H](CO)[C@@H](O)[C@H]1O`, the relative growth is inactive: 0.259.

In the case of `CC(=O)N(C)C1(c2ccccc2)CCN(CCC[C@]2(c3ccc(Cl)c(Cl)c3)CCCN(C(=O)c3ccccc3)C2)CC1`, the relative growth was inactive: 0.956.

Turning to `COc1ccccc1C#Cc1cnc2c(c1)C(=O)N([C@H](C)CO)C[C@@H](C)[C@H](CN(C)C(=O)CC1CC1)O2`, the relative growth is inactive: 1.04.

Consider `COc1ccc(S(=O)(=O)N(C)C[C@H]2Oc3ccc(NS(=O)(=O)c4c(C)noc4C)cc3C(=O)N([C@@H](C)CO)C[C@H]2C)cc1`, for which the relative growth was inactive: 0.993.

For the compound `Cc1noc(C)c1S(=O)(=O)Nc1ccc2c(c1)C(=O)N([C@@H](C)CO)C[C@@H](C)[C@H](CN(C)C(=O)Nc1ccc(F)cc1)OCCCC[C@H](C)O2`, the relative growth was inactive: 1.03.

As for `COCC#Cc1cnc2c(c1)C(=O)N([C@@H](C)CO)C[C@H](C)[C@@H](CN(C)C(=O)Nc1ccc(OC)cc1)O2`, the relative growth is inactive: 0.985.
